Measured values as given in the supplement of paper PMC4967469.
The IC50 comes from the fitted curve, where viability falls to half of the control; fits outside the tested doses are given as limits. AUC sums up the same curve from the lowest dose to the 256-fold higher top dose: 1 means no effect, lower means more sensitive. A top dose marked as inferred was derived from the fitted curves, not read from the paper. For part of these data: Where an entry number is given, a second screen of the drug exists; the two often differ.

What was measured:
AICAR = compound: NC(=O)c1ncn([C@@H]2O[C@H](CO)[C@@H](O)[C@H]2O)c1N [AICAR]; assay: Viability of human cancer cell lines after 72 h of drug (GDSC screen); conditions: top dose 2000 µM; top dose inferred
Protocol: (§1)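 Human cancer cell lines in 384-well plates, medium with 10% serum, drug for 72 h over a 256-fold dose range (nine 2-fold or five 4-fold steps up to the top dose). Adherent lines were fixed and stained with the nucleic acid dye Syto60, suspension lines read with resazurin; signal relative to control wells, capped at 0 and 100%. One two-parameter sigmoid per drug and line, fitted in a mixed model over all curves with the slope shared within a line.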

AKT inhibitor VIII = compound: O=c1[nH]c2ccccc2n1C1CCN(Cc2ccc(-c3[nH]c4cc5ncnc5cc4nc3-c3ccccc3)cc2)CC1 [AKT inhibitor VIII]; assay: as above; conditions: top dose inferred
Protocol: as §1

[1] = top dose 2.56 µM, screen: GDSC drug entry 171
[2] = top dose 10.24 µM, screen: GDSC drug entry 228

| Cell Line | AUC (AICAR) | IC50 (AICAR) [µM] | AUC (AKT inhibitor VIII; [1]) | IC50 (AKT inhibitor VIII; [1]) [µM] | AUC (AKT inhibitor VIII; [2]) | IC50 (AKT inhibitor VIII; [2]) [µM] |
| --- | --- | --- | --- | --- | --- | --- |
| SK-MEL-3 (melanoma, adherent) | 0.978 | > 2000 | 0.93 | > 2.56 | 0.909 | > 10.2 |
| SK-MEL-5 (melanoma, adherent) | 0.978 | > 2000 |  |  | 0.849 | > 10.2 |
| SK-MEL-24 (melanoma, adherent) | 0.904 | > 2000 | 0.931 | > 2.56 | 0.978 | > 10.2 |
| SK-MEL-30 (melanoma, adherent) | 0.946 | > 2000 | 0.984 | > 2.56 | 0.928 | > 10.2 |
| SK-MES-1 (lung squamous cell carcinoma, adherent) | 0.943 | > 2000 | 0.839 | 1.98 | 0.811 | 6.03 |
| SK-MG-1 (glioma, adherent) | 0.86 | 1720 |  |  | 0.987 | > 10.2 |
| SK-MM-2 (myeloma, suspension) | 0.839 | 1460 | 0.96 | > 2.56 | 0.559 | 0.932 |
| SK-N-AS (neuroblastoma, adherent) | 0.84 | 1700 | 0.975 | > 2.56 | 0.761 | 4.16 |
| SK-N-FI (neuroblastoma, adherent) | 0.99 | > 2000 | 0.988 | > 2.56 | 0.945 | > 10.2 |
| SK-N-SH (neuroblastoma, adherent) | 0.943 | > 2000 | 0.974 | > 2.56 | 0.923 | > 10.2 |
| SK-OV-3 (ovary, adherent) | 0.908 | > 2000 | 0.931 | > 2.56 | 0.677 | 2.29 |
| SK-PN-DW (Ewing sarcoma, adherent) | 0.682 | 414 | 0.917 | > 2.56 | 0.878 | > 10.2 |
| SK-UT-1 (soft tissue, adherent) | 0.937 | > 2000 | 0.804 | 1.15 | 0.899 | > 10.2 |
| SKG-IIIa (cervix, adherent) | 0.894 | > 2000 | 0.97 | > 2.56 | 0.961 | > 10.2 |
| SKN (uterus, adherent) | 0.904 | > 2000 | 0.885 | > 2.56 | 0.881 | > 10.2 |
| SKN-3 (head and neck, adherent) | 0.879 | > 2000 | 0.982 | > 2.56 | 0.983 | > 10.2 |
| SLVL (B-cell lymphoma, suspension) | 0.774 | 831 | 0.957 | > 2.56 | 0.718 | 2.76 |
| SNB75 (glioma, adherent) | 0.847 | > 2000 | 0.885 | > 2.56 | 0.899 | > 10.2 |
| SNG-M (endometrium, adherent) | 0.935 | > 2000 | 0.952 | > 2.56 | 0.914 | > 10.2 |
| SNU-61 (large intestine, adherent) | 0.921 | > 2000 |  |  | 0.908 | > 10.2 |

| Cell Line | AUC (AICAR) | IC50 (AICAR) [µM] | AUC (AKT inhibitor VIII; [1]) | IC50 (AKT inhibitor VIII; [1]) [µM] | AUC (AKT inhibitor VIII; [2]) | IC50 (AKT inhibitor VIII; [2]) [µM] |
| --- | --- | --- | --- | --- | --- | --- |
| SNU-81 (large intestine, adherent) | 0.883 | > 2000 |  |  | 0.728 | 3.63 |
| SNU-182 (liver, adherent) | 0.869 | 1980 | 0.91 | > 2.56 | 0.704 | 2.47 |
| SNU-387 (liver, adherent) | 0.901 | > 2000 | 0.857 | 2.55 | 0.72 | 2.96 |
| SNU-407 (large intestine, adherent) | 0.947 | > 2000 |  |  | 0.762 | 4.25 |
| SNU-423 (liver, adherent) | 0.836 | 1660 | 0.875 | > 2.56 | 0.784 | 5.14 |
| SNU-449 (liver, adherent) | 0.899 | > 2000 | 0.973 | > 2.56 | 0.734 | 3.19 |
| SNU-C1 (large intestine, suspension) | 0.812 | 1780 | 0.902 | > 2.56 | 0.807 | 8.62 |
| SNU-C2B (large intestine, adherent) | 0.803 | 1380 | 0.937 | > 2.56 | 0.894 | > 10.2 |
| SNU-C5 (large intestine, adherent) | 0.867 | > 2000 |  |  | 0.93 | > 10.2 |
| STS-0421 (soft tissue, adherent) | 0.782 | 986 | 0.95 | > 2.56 | 0.848 | 9.68 |
| SU8686 (pancreas, adherent) | 0.903 | > 2000 | 0.967 | > 2.56 | 0.973 | > 10.2 |
| SU-DHL-4 (B-cell lymphoma, suspension) | 0.991 | > 2000 | 0.997 | > 2.56 | 0.803 | 3.51 |
| SU-DHL-5 (B-cell lymphoma, suspension) | 0.711 | 413 | 0.932 | 2.48 | 0.664 | 1.61 |
| SU-DHL-6 (B-cell lymphoma, suspension) | 0.827 | 823 | 0.943 | > 2.56 | 0.349 | 0.274 |
| SU-DHL-16 (B-cell lymphoma, suspension) | 0.623 | 247 | 0.891 | 1.57 | 0.89 | 6.24 |
| SUIT-2 (pancreas, adherent) | 0.818 | 1200 | 0.922 | > 2.56 | 0.871 | > 10.2 |
| SUP-B15 (lymphoblastic leukaemia, suspension) | 0.566 | 188 | 0.976 | > 2.56 | 0.408 | 0.362 |
| SUP-HD1 (Hodgkin lymphoma, suspension) | 0.739 | 579 | 0.961 | > 2.56 | 0.77 | 3.7 |
| SUP-M2 (anaplastic large cell lymphoma, suspension) | 0.698 | 385 | 0.994 | > 2.56 | 0.592 | 1.07 |
| SUP-T1 (T-cell lymphoblastic leukaemia, suspension) | 0.913 | > 2000 | 0.938 | > 2.56 | 0.636 | 1.46 |
